# Laboratory results reported in the supplement of paper PMC10600219.
# Counter-ions that a name gives are not always drawn. Whole data set: some 2,800 compounds, median “cell viability relative to vehicle” near 1.1, cut for the lowest 2% near 0.19. Some of the results follow.
# Test system: NCI-H2228 parental
# Assay: cell viability relative to vehicle (fraction of vehicle); NCI-H2228 is an ALK-positive lung cancer line and DTP means drug-tolerant persister; higher = less growth inhibition
# Details: 100 nM; treatment time 6 days
# Outline: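 NCI-H2228 parental cells and drug-tolerant persister cells were plated in 384-well plates; the persisters had been generated with 1000 nM of a targeted drug over 13 days. One day later, the 3114-agent TargetMol anti-cancer compound library was added at 100 nM, with DMSO serving as vehicle. ATP was measured 6 days after that using the CellTiter-Glo 3D Cell Viability Assay. Values are cell viability expressed relative to vehicle-treated cells.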
row,SMILES,cell viability
1,CCn1c(N)c(C(=O)NC)c(=O)c2ccc(C#CC(C)(O)COC)nc21 (stereo not drawn),1.03
2,CCOC(=O)C1=C(C)NC(=S)NC1c1cccc(O)c1 (stereo not drawn) [Monastrol],0.991
3,CC[C@H]1OC(=O)[C@H](C)[C@@H](O[C@H]2C[C@@](C)(OC)[C@@H](O)[C@H](C)O2)[C@H](C)[C@@H](O[C@@H]2O[C@H](C)C[C@H](N(C)C)[C@H]2O)[C@](C)(O)C[C@@H](C)CN(C)[C@H](C)[C@@H](O)[C@]1(C)O [Azithromycin dihydrate],1.37
4,OCCn1cc(-c2ccc3c(c2)CC/C3=N\O)c(-c2ccncc2)n1,1.2
5,CN1CCc2nc(C(=O)N[C@@H]3C[C@@H](C(=O)N(C)C)CC[C@@H]3NC(=O)C(=O)Nc3ccc(Cl)cn3)sc2C1 [Edoxaban Tosylate Monohydrate],1.15
6,CN[C@H]1CC[C@@H](c2ccc(Cl)c(Cl)c2)c2ccccc21 [Sertraline hydrochloride],1.18
7,NC(=O)C1CCCc2c1[nH]c1ccc(Cl)cc21 (stereo not drawn) [Selisistat],1.07
8,O=C(/C=C/c1ccc(O)c(O)c1)O[C@H](Cc1ccc(O)c(O)c1)C(=O)O [Rosmarinic acid],1.08
9,CCS(=O)(=O)c1cccc(-c2cc(C(=O)NC3CCN(C)CC3)c(C)c3[nH]c4ncc(C)cc4c23)c1,0.617
10,C[C@H]1CC[C@@]2(OC1)O[C@H]1C[C@H]3[C@@H]4CC[C@@H]5C[C@@H](O)CC[C@]5(C)[C@H]4CC[C@]3(C)[C@H]1[C@@H]2C [Sarsasapogenin],1.13
11,C[C@]12CC[C@@H]3c4ccc(O)cc4C[C@@H](CCCCCCCCC[S+]([O-])CCCC(F)(F)C(F)(F)F)[C@H]3[C@@H]1CC[C@@H]2O (stereo partly drawn) [Fulvestrant],1.2
12,COc1cc(CNC(=O)CCCC/C=C/C(C)C)ccc1O [Capsaicin],1.07
13,CO/N=C(\C(=O)N[C@@H]1C(=O)N2C(C(=O)O)=C(COC(C)=O)CS[C@H]12)c1csc(N)n1 [Cefotaxime sodium],0.888
14,COc1ccc(-c2cc(=O)c3c(O)c(OC)c(O)cc3o2)cc1OC [Eupatilin],1.13
15,O=C(O)CC(C(=O)O)n1c(O)c(C2=c3cc(Br)ccc3=NC2=O)sc1=S (stereo not drawn),1.01
16,CC1(C)CN(C(=O)c2ccc(-c3cccc4nc(NC(=O)C5CC5)nn34)cc2)C1 [Solcitinib],1.11
17,Clc1ccc2nsnc2c1NC1=NCCN1 [Tizanidine hydrochloride],0.991
18,Cc1cc(Nc2cc(N3CCN(C)CC3)nc(Sc3ccc(NC(=O)C4CC4)cc3)n2)n[nH]1 [Tozasertib],0.158
19,CC(=O)Nc1nnc(S(N)(=O)=O)s1 [Acetazolamide],1.12
20,Nc1nc(OCc2cc(Br)cs2)c2[nH]cnc2n1 [Lomeguatrib],0.971
21,COc1c(Nc2ncc(Cl)c(N[C@H]3[C@@H](C(N)=O)[C@@H]4C=C[C@H]3C4)n2)ccc2c1CC[C@@H](N1CCOCC1)CC2,0.799
22,N[C@H]1CC[C@H](N[C@@H]2C[C@H]2c2ccccc2)CC1,1.05
23,Cc1cc(C(C)Nc2ccccc2)c2nc(N3CCOCC3)cc(=O)n2c1 (stereo not drawn),0.993
24,CCOC(=O)C1=C(N)Oc2ccc(Br)cc2C1C(C#N)C(=O)OCC (stereo not drawn),1.13
25,O=[N+]([O-])c1ccc(Nc2nc(N3CCOCC3)nc(N3CCOCC3)n2)cc1,1.14

row,SMILES,cell viability
1,O=C1O[C@H]([C@@H](O)CO)C([O-])=C1O.[Na+] [Sodium ascorbate],1.02
2,Cc1c(O)c(C)c2c(c1O)C(=O)C[C@@H](c1ccc(O)cc1)O2 [Farrerol],1
3,CC(C)=CCC1=C(O)C(=O)c2ccccc2C1=O [Lapachol],0.936
4,Nc1nc(=O)n([C@@H]2CS[C@H](CO)O2)cc1F [Emtricitabine],1.13
5,COc1ccc(Cl)cc1C(=O)NCCc1ccc(S(=O)(=O)NC(=O)NC2CCCCC2)cc1 [Glyburide],1.08
6,CC#C[C@]1(O)CC[C@H]2[C@@H]3CCC4=CC(=O)CCC4=C3[C@@H](c3ccc(N(C)C)cc3)C[C@@]21C [Mifepristone],1.08
7,COC(=O)N[C@@H](C)CNc1nccc(-c2cn(C(C)C)nc2-c2cc(Cl)cc(NS(C)(=O)=O)c2F)n1 [Encorafenib],1.13
8,CC[C@@H]1C(=O)N(C)c2cnc(Nc3ccc(C(=O)N[C@H]4CC[C@H](N5CCN(CC6CC6)CC5)CC4)cc3OC)nc2N1C(C)C [Volasertib],0.192
9,Cc1nc(C(=O)NCC(=O)O)c(O)c2ccc(Oc3ccccc3)cc12 [Roxadustat],0.938
10,COc1cccc2c1C(=O)c1c(O)c3c(c(O)c1C2=O)C[C@@](O)(C(=O)CO)C[C@@H]3O[C@H]1C[C@H](N)[C@H](O[C@@H]2CCCCO2)[C@H](C)O1 [Pirarubicin],0.22
11,COc1cc2c(NC3CCN(C(C)C)CC3)nc(N3CCC(F)(F)CC3)nc2cc1OCCCN1CCCC1,1.06
12,CCCCCCNC(=O)n1cc(F)c(=O)[nH]c1=O [Carmofur],0.957
13,CC(O)c1cc(C(=O)N[C@@H](C)Cn2ccc(-c3ccc(C#N)c(Cl)c3)n2)n[nH]1 (stereo partly drawn) [Darolutamide],1.2
14,CCC[C@@H]1C[C@@H](C(=O)N[C@@H]([C@H]2O[C@H](SC)[C@H](OP(=O)(O)O)[C@@H](O)[C@H]2O)[C@H](C)Cl)N(C)C1 [Clindamycin phosphate],1.01
15,CC(C)[C@H](N)C(=O)OCCOCn1cnc2c(=O)nc(N)[nH]c21 [Valacyclovir hydrochloride],1.08
16,O=C(Nc1cnn2ccc(N3CCC[C@@H]3c3cc(F)ccc3F)nc12)N1CC[C@H](O)C1 [Larotrectinib sulfate],0.9
17,CN1CCN2c3ncccc3Cc3ccccc3C2C1 (stereo not drawn) [Mirtazapine],1.05
18,CC(C)(O)[C@@H]1CC[C@](C)([C@H]2[C@@H](O)C[C@@]3(C)[C@@H]4C[C@H](O)[C@H]5C(C)(C)[C@@H](O)CC[C@@]56C[C@@]46CC[C@]23C)O1 [Cycloastragenol],1.12
19,Cc1cc(C)nc(NS(=O)(=O)c2ccc(N)cc2)n1 [Sulfamethazine sodium salt],1.04
20,CCn1c(=O)c2c(nc(/C=C/c3ccc(OC)c(OC)c3)n2C)n(CC)c1=O [Istradefylline],1.06
21,O=c1cc(-c2ccccc2)oc2ccccc12 [Flavone],1.12
22,C/C=C\c1ccc(OC)cc1 [cis-Anethol],1.09
23,CC1=NN(c2ccc(C)c(C)c2)C(=O)/C1=N\Nc1cccc(-c2cccc(C(=O)O)c2)c1O [Eltrombopag Olamine],1.09
24,C[C@@H]1C/C=C/C=C/C=C/C=C/[C@H](O[C@@H]2O[C@H](C)[C@@H](O)[C@H](N)[C@@H]2O)C[C@@H]2O[C@](O)(C[C@@H](O)C[C@H]3O[C@@H]3/C=C/C(=O)O1)C[C@H](O)[C@H]2C(=O)O [Pimaricin],1.15
25,CONC(=O)Nc1ccc(-c2sc3c(c2CN(C)Cc2ccccc2)c(=O)n(-c2ccccc2)c(=O)n3Cc2c(F)cccc2F)cc1 [Sufugolix],0.979

row,SMILES,cell viability
1,O=C(/C=C/c1cccc(S(=O)(=O)Nc2ccccc2)c1)NO [Belinostat],0.851
2,CCC(Sc1nnc2c3ccccc3n(CC)c2n1)C(=O)Nc1ccccc1OC (stereo not drawn),1.01
3,Cc1c(N)c(=O)n(-c2ccccc2)n1C [4-Aminoantipyrine],1.08
4,CCN(CC)CCCC[C@H](NC(=O)[C@H](CC(C)C)NC(=O)[C@H](C)NC(=O)[C@H](Cc1ccccc1)NC(=O)c1ccc(C(C)(C)C)cc1)C(=O)N[C@@H](CO)C(=O)OC,1.02
5,OCC1OC(O)CC(O)C1O [2-Deoxy-D-glucose],1.08
6,COc1cc2nccc(Oc3ccc(NC(=O)c4cn(C(C)C)c(=O)n(-c5ccc(F)cc5)c4=O)cc3F)c2cc1OC,0.941
7,Nc1nc2c(cnn2CCc2ccccc2)c2nc(-c3ccco3)nn12,1.04
8,CC(C)(C)c1cc(NC(=O)Nc2ccc(-c3cn4c(n3)sc3cc(OCCN5CCOCC5)ccc34)cc2)no1 [Quizartinib],0.968
9,CN1CCN(c2ccc(-c3cccc(CN4CCOCC4)c3)cc2NC(=O)c2c[nH]c(=O)cc2C(F)(F)F)CC1,0.943
10,O=C(CCBr)N1CCN(C(=O)CCBr)CC1 [Pipobroman],1
11,CNC(=O)c1ccc(N2C(=S)N(c3ccc(C#N)c(C(F)(F)F)c3)C(=O)C2(C)C)cc1F [Enzalutamide],1.09
12,N[C@H]1CONC1=O [L-Cycloserine],1.11
13,CCCc1ccc(OCC(=O)N(Cc2nc(-c3cccnc3)no2)C(C)C)cc1,1.1
14,CC(C)n1ncnc1-c1cn2c(n1)-c1ccc(O[C@@H](C)C(N)=O)cc1OCC2,0.745
15,COc1cc2nc(N3CCN(C(=O)C4COc5ccccc5O4)CC3)nc(N)c2cc1OC (stereo not drawn) [Doxazosin mesylate],1.09
16,N#C/C(=C(/N)Sc1ccc(N)cc1)c1ccccc1C(F)(F)F,0.959
17,CC(C)NC(=O)C1CCC(n2c(NC(=O)c3ccc(F)cc3)nc3ccc(CN4CCC(C(C)(C)O)CC4)cc32)CC1 (stereo not drawn) [Belizatinib],0.595
18,NC[C@@](O)(c1ccc(Cl)cc1)c1ccc(-c2cn[nH]c2)cc1,0.912
19,O=c1c(O)c(-c2ccc(O)cc2)oc2cc(O)cc(O)c12 [Kaempferol],1.09
20,Cc1cc(C(C)(C)C)cc(C)c1CC1=NCCN1 [Xylometazoline hydrochloride],1.18
21,O=C(Nc1cnc(Cl)nc1)c1ccc(F)c(F)c1,1.06
22,COC(=O)[C@H](CC(C)C)NC(=O)c1ccc(NC[C@@H](N)CS)cc1-c1cccc2ccccc12,1.14
23,O=P(O)(O)C(O)(Cn1ccnc1)P(=O)(O)O [Zoledronic Acid],0.944
